# Measured values reported in the supplement of paper PMC8728848.
# The other results are listed elsewhere or left out.
# B1: PX9937D-bvu-500-26-500 (Bacteroides vulgatus) (protein)
# chain: DPVSDITDLNYWKTPEQFDSFVFGLHSRFRSHSWNMFLLGEARSDVFGGIPFGGEATQGMERFPYNTLNAENPGISGFGDLYQNINQMNLFISRTLHTDVLTESARNYYLGQVYGLRAYYMYQLYRSWGDVVFTEEPSLGFEVGKLAKAATPAAEIFEQVKKDIESSLSYFGSDYTIKEKKSLWSKAATLMLKADVYLWSAHRDGGEGDARTAKNALVDIQNNISRSNLDLMDTYQGVFAYDNKGNKEIIFTIHNELFEYNLWNGNNDLFPQADYLGKFYNADGTLINTSVENNFGIMRLMVKLENFKKFLPGDTRRDVTLKDVYNKVENGKLELVGVYPHKYWGVMNGSTRVRCDDYPIYRYSDLLLMLAEAKVLLGEDPATEINRVRRRAFGDAYDASTVGFPNQEVDKRPADAVLQERLFEFMLEGKRWYDLRRFGDSYVLDYTPAEPARLLWPINQGALTNNPLLKQTVGY
# Key:
# Test in all cases: glycan array binding signal (z-score within array); higher = stronger binding
# Conditions in all cases: glycan notation: IUPAC condensed, linker removed
# [1] = target: Gal(b1-4)GlcNAc(b1-2)Man(a1-6)[Man(a1-3)]Man(b1-4)GlcNAc(b1-4)GlcNAc
# Procedure, shortened: (§1)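 The binding signal is a Z-score computed within each array. Data were drawn from 3228 arrays in the Consortium for Functional Glycomics database, restricted to those with a known protein sequence. Scores were averaged over arrays of the same protein sequence at different concentrations or buffers, and over linkers, and negative values can be taken as non-binding.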
# [2] = target: Gal(b1-4)GlcNAc(b1-2)[Gal(b1-4)GlcNAc(b1-4)]Man(a1-3)[Gal(b1-4)GlcNAc(b1-2)Man(a1-6)]Man(b1-4)GlcNAc(b1-4)GlcNAc
# Procedure, shortened: as §1
# [3] = target: Gal(b1-4)GlcNAc(b1-2)[Gal(b1-4)GlcNAc(b1-4)]Man(a1-3)[Gal(b1-4)GlcNAc(b1-2)[Gal(b1-4)GlcNAc(b1-6)]Man(a1-6)]Man(b1-4)GlcNAc(b1-4)GlcNAc
# Procedure, shortened: as §1
# [4] = target: Gal(b1-4)GlcNAc(b1-2)[Gal(b1-4)GlcNAc(b1-4)]Man(a1-3)[GlcNAc(b1-4)][Gal(b1-4)GlcNAc(b1-2)Man(a1-6)]Man(b1-4)GlcNAc(b1-4)GlcNAc
# Procedure, shortened: as §1
# [5] = target: Gal(b1-4)GlcNAc(b1-2)[Gal(b1-4)GlcNAc(b1-4)]Man(a1-3)[GlcNAc(b1-4)][Gal(b1-4)GlcNAc(b1-2)[Gal(b1-4)GlcNAc(b1-6)]Man(a1-6)]Man(b1-4)GlcNAc(b1-4)GlcNAc
# Procedure, shortened: as §1
# [6] = target: Gal(b1-4)GlcNAc(b1-2)[Gal(b1-4)GlcNAc(b1-6)]Man(a1-6)[Gal(b1-4)GlcNAc(b1-2)Man(a1-3)]Man(b1-4)GlcNAc(b1-4)GlcNAc
# Procedure, shortened: as §1
# [7] = target: Gal(b1-4)GlcNAc(b1-2)[Gal(b1-4)GlcNAc(b1-6)]Man(a1-6)[Gal(b1-4)GlcNAc(b1-2)Man(a1-3)]Man(b1-4)GlcNAc(b1-4)[Fuc(a1-6)]GlcNAc
# Procedure, shortened: as §1
# [8] = target: Gal(b1-4)GlcNAc(b1-2)[Gal(b1-4)GlcNAc(b1-6)]Man(a1-6)[GlcNAc(b1-4)][Gal(b1-4)GlcNAc(b1-2)Man(a1-3)]Man(b1-4)GlcNAc(b1-4)GlcNAc
# Procedure, shortened: as §1
# [9] = target: Gal(b1-4)GlcNAc(b1-2)[Gal(b1-4)GlcNAc(b1-6)]Man(a1-6)[GlcNAc(b1-4)][Gal(b1-4)GlcNAc(b1-2)[Gal(b1-4)GlcNAc(b1-4)]Man(a1-3)]Man(b1-4)GlcNAc(b1-4)[Fuc(a1-6)]GlcNAc
# Procedure, shortened: as §1
# [10] = target: Gal(b1-4)GlcNAc(b1-3)Gal(b1-3)GalNAc
# Procedure, shortened: as §1
# [11] = target: Gal(b1-4)GlcNAc(b1-3)Gal(b1-3)GlcNAc
# Procedure, shortened: as §1
# [12] = target: Gal(b1-4)GlcNAc(b1-3)Gal(b1-4)Glc
# Procedure, shortened: as §1
# [13] = target: Gal(b1-4)GlcNAc(b1-3)Gal(b1-4)GlcNAc
# Procedure, shortened: as §1
# [14] = target: Gal(b1-4)GlcNAc(b1-3)Gal(b1-4)GlcNAc(b1-2)Man(a1-3)[Gal(b1-4)GlcNAc(b1-3)Gal(b1-4)GlcNAc(b1-2)Man(a1-6)]Man(b1-4)GlcNAc(b1-4)GlcNAc
# Procedure, shortened: as §1
# [15] = target: Gal(b1-4)GlcNAc(b1-3)Gal(b1-4)GlcNAc(b1-2)Man(a1-3)[Gal(b1-4)GlcNAc(b1-3)Gal(b1-4)GlcNAc(b1-2)Man(a1-6)]Man(b1-4)GlcNAc(b1-4)[Fuc(a1-6)]GlcNAc
# Procedure, shortened: as §1
# [16] = target: Gal(b1-4)GlcNAc(b1-3)Gal(b1-4)GlcNAc(b1-2)[Gal(b1-4)GlcNAc(b1-3)Gal(b1-4)GlcNAc(b1-6)]Man(a1-6)[Gal(b1-4)GlcNAc(b1-3)Gal(b1-4)GlcNAc(b1-2)Man(a1-3)]Man(b1-4)GlcNAc(b1-4)GlcNAc
# Procedure, shortened: as §1
# [17] = target: Gal(b1-4)GlcNAc(b1-3)Gal(b1-4)GlcNAc(b1-2)[Gal(b1-4)GlcNAc(b1-3)Gal(b1-4)GlcNAc(b1-6)]Man(a1-6)[Gal(b1-4)GlcNAc(b1-3)Gal(b1-4)GlcNAc(b1-2)Man(a1-3)]Man(b1-4)GlcNAc(b1-4)[Fuc(a1-6)]GlcNAc
# Procedure, shortened: as §1
# [18] = target: Gal(b1-4)GlcNAc(b1-3)Gal(b1-4)GlcNAc(b1-3)Gal(b1-4)GlcNAc
# Procedure, shortened: as §1
binder,measurement,setting,value
B1,glycan array binding signal (z-score),[1],-0.333
same,glycan array binding signal (z-score),[2],-0.128
same,glycan array binding signal (z-score),[3],-0.019
same,glycan array binding signal (z-score),[4],-0.5
same,glycan array binding signal (z-score),[5],-0.227
same,glycan array binding signal (z-score),[6],0.717
same,glycan array binding signal (z-score),[7],0.247
same,glycan array binding signal (z-score),[8],-0.177
same,glycan array binding signal (z-score),[9],5.5
same,glycan array binding signal (z-score),[10],-0.141
same,glycan array binding signal (z-score),[11],-0.222
same,glycan array binding signal (z-score),[12],-0.102
same,glycan array binding signal (z-score),[13],-0.174
same,glycan array binding signal (z-score),[14],0.66
same,glycan array binding signal (z-score),[15],0.402
same,glycan array binding signal (z-score),[16],0.413
same,glycan array binding signal (z-score),[17],0.184
same,glycan array binding signal (z-score),[18],-0.407
